Results published in the antibiotic and cytotoxicity screens of Wong et al. (2023).
The other results are listed elsewhere or left out.

These compounds were tested on HSkMC (human skeletal muscle cells) (assay: cytotoxicity call (relative viability < 0.9)). Settings: 10 µM.
`O=C(C[C@@H]1C[C@H]2c3cc(NC(=O)Cc4ccncc4)ccc3O[C@H]2[C@@H](CO)O1)NCCN1CCCCC1` was tested, and the cytotoxicity call was “inactive”.
In the case of `C[C@H](CO)N1C[C@H](C)[C@@H](CN(C)CC2CCCCC2)Oc2c(NS(=O)(=O)c3cn(C)cn3)cccc2C1=O`, the cytotoxicity call is reported as “inactive”.
With `COc1ccc(CNC(=O)C[C@@H]2C[C@H]3c4cc(NC(=O)NC5CCCC5)ccc4O[C@H]3[C@H](CO)O2)cc1` the cytotoxicity call was “inactive”.
In the case of `C[C@@H]1CN([C@@H](C)CO)C(=O)c2cc(NC(=O)Nc3cccc4ccccc34)ccc2O[C@@H]1CN(C)S(=O)(=O)c1ccccc1`, the cytotoxicity call is reported as “inactive”.
In the case of `COc1ccc(CN2C[C@@H](C)[C@H](OC)CN(C)C(=O)c3cc(NC(=O)c4nc5ccccc5s4)ccc3OC[C@H]2C)cc1`, the cytotoxicity call is reported as “inactive”.
`COc1cccc(S(=O)(=O)N(C)C[C@H]2Oc3ncc(C#CC(C)C)cc3C(=O)N([C@@H](C)CO)C[C@@H]2C)c1` was tested, and the cytotoxicity call was “inactive”.
In the case of `COc1ccc(S(=O)(=O)Nc2ccc3c(c2)CC(=O)N([C@H](C)CO)C[C@@H](C)[C@@H](CN(C)S(=O)(=O)c2c(C)noc2C)O3)cc1`, the cytotoxicity call is reported as “inactive”.
In the case of `C[C@@H]1CN([C@H](C)CO)C(=O)CCCn2cc(nn2)CO[C@H]1CN(C)C(=O)Nc1cccc(C(F)(F)F)c1`, the cytotoxicity call is reported as “inactive”.
For `CO[C@@H](CN(C)C(=O)c1ccc2c(c1)OCO2)[C@H](C)CN([C@@H](C)CO)S(=O)(=O)c1ccc(F)cc1`, the cytotoxicity call was “inactive”.
For `Cc1noc(C)c1S(=O)(=O)N(C)C[C@@H]1Oc2ccc(NC(=O)C3CC3)cc2CC(=O)N([C@H](C)CO)C[C@H]1C`, the cytotoxicity call was “inactive”.
With `C[C@H]1CCCCO[C@H](CN(C)C(=O)Nc2ccc3c(c2)OCO3)[C@@H](C)CN([C@@H](C)CO)C(=O)c2cc(NC(=O)CCC(F)(F)F)ccc2O1` the cytotoxicity call was “inactive”.
`COCC#Cc1ccc2c(c1)O[C@H](CN(C)S(=O)(=O)c1ccc(OC)cc1)[C@H](C)CN([C@H](C)CO)S2(=O)=O` was tested, and the cytotoxicity call was “inactive”.
For `C[C@@H]1CN([C@@H](C)CO)C(=O)c2cc(N(C)C)ccc2O[C@@H](C)CCCCO[C@@H]1CN(C)Cc1ccc(C(F)(F)F)cc1`, the cytotoxicity call was “inactive”.
For `COCC(=O)N(C)C[C@@H]1Oc2cc(C#Cc3ccccc3)ccc2S(=O)(=O)N([C@@H](C)CO)C[C@@H]1C`, the cytotoxicity call was “inactive”.
`Cc1ccc(-c2cnc3c(c2)C(=O)N([C@@H](C)CO)C[C@@H](C)[C@@H](CN(C)C(=O)Cc2ccncc2)O3)cc1` was tested, and the cytotoxicity call was “inactive”.
In the case of `C[C@H]1CN([C@@H](C)CO)C(=O)c2cc(NS(C)(=O)=O)ccc2O[C@H]1CN(C)S(=O)(=O)c1cn(C)cn1`, the cytotoxicity call is reported as “inactive”.
`C[C@H]1CN([C@@H](C)CO)C(=O)c2cc(NC(=O)Cn3cnnn3)ccc2O[C@@H]1CN(C)Cc1ccc(Cl)c(Cl)c1` was tested, and the cytotoxicity call was “inactive”.
For `CCS(=O)(=O)N1C[C@]2(C1)CN([C@H](CO)c1c2c2ccc(cc2n1C)OC)C(=O)CN1CCOCC1`, the cytotoxicity call was “inactive”.
For `C[C@@H]1CN([C@@H](C)CO)C(=O)Cc2cc(NC(=O)C3CCCCC3)ccc2O[C@@H]1CN(C)S(C)(=O)=O`, the cytotoxicity call was “inactive”.
`C[C@@H]1CN([C@@H](C)CO)C(=O)c2cc(NC(=O)c3ccccc3)ccc2O[C@@H](C)CCCCO[C@H]1CN(C)C(=O)C1CCCCC1` was tested, and the cytotoxicity call was “inactive”.
With `COc1ccc(NC(=O)N(C)C[C@@H]2Oc3ccc(NC(=O)CCCCCC(=O)Nc4ccccc4N)cc3CC(=O)N([C@@H](C)CO)C[C@H]2C)cc1` the cytotoxicity call was “inactive”.
In the case of `Cc1ccc(S(=O)(=O)N(C)C[C@@H]2Oc3ccc(NC(=O)NC(C)C)cc3CC(=O)N([C@H](C)CO)C[C@H]2C)cc1`, the cytotoxicity call is reported as “inactive”.
In the case of `C[C@@H]1CN([C@H](C)CO)C(=O)c2cc(NC(=O)Nc3ccc(C(F)(F)F)cc3)ccc2O[C@@H](C)CCCCO[C@@H]1CN(C)Cc1ccc(Cl)c(Cl)c1`, the cytotoxicity call is reported as “inactive”.
For `C[C@@H]1CN([C@@H](C)CO)C(=O)c2cccc(NC(=O)c3nc4ccccc4s3)c2O[C@@H]1CN(C)CC1CCCCC1`, the cytotoxicity call was “inactive”.
For `CO[C@@H]1CN(C)C(=O)c2ccc(NC(=O)Nc3ccccc3F)cc2OC[C@@H](C)N(C(=O)Nc2ccccc2F)C[C@H]1C`, the cytotoxicity call was “inactive”.
In the case of `CC[C@@]1(O)C[C@H](O[C@H]2C[C@H](N(C)C)[C@H](O[C@H]3C[C@H](O)[C@H](O[C@H]4CCC(=O)[C@H](C)O4)[C@H](C)O3)[C@H](C)O2)c2c(cc3c(c2O)C(=O)c2c(O)cccc2C3=O)[C@H]1C(=O)OC`, the cytotoxicity call is reported as “active”.
With `C[C@@H]1CN([C@@H](C)CO)C(=O)c2cccc(NC(=O)C3CC3)c2O[C@@H]1CN(C)S(=O)(=O)c1cccs1` the cytotoxicity call was “inactive”.
In the case of `COc1ccc(NC(=O)N(C)C[C@H]2OCc3ccccc3-c3c(n(C)c4ccccc34)C(=O)N([C@H](C)CO)C[C@H]2C)c(OC)c1`, the cytotoxicity call is reported as “inactive”.
For `Cc1noc(C)c1NC(=O)Nc1ccc2c(c1)C(=O)N([C@H](C)CO)C[C@H](C)[C@H](CN(C)C(=O)Nc1c(C)noc1C)OCCCC[C@@H](C)O2`, the cytotoxicity call was “inactive”.
In the case of `O=C(CN1CCOCC1)NCC[C@H]1CC[C@H](NC(=O)c2ccc3c(c2)OCO3)[C@H](CO)O1`, the cytotoxicity call is reported as “inactive”.
For `CC(C)NC(=O)N(C)C[C@H]1Oc2cc(C#Cc3ccc(F)cc3)ccc2S(=O)(=O)N([C@@H](C)CO)C[C@@H]1C`, the cytotoxicity call was “inactive”.
With `COc1ccc(S(=O)(=O)N(C)C[C@@H]2Oc3c(NC(=O)c4cc(C)nn4C)cccc3C(=O)N([C@@H](C)CO)C[C@H]2C)cc1` the cytotoxicity call was “inactive”.
With `Cc1ccc(S(=O)(=O)N(C)C[C@H]2OCCCC[C@H](C)Oc3ccc(NC(=O)CCCCCC(=O)Nc4ccccc4N)cc3C(=O)N([C@@H](C)CO)C[C@@H]2C)cc1` the cytotoxicity call was “inactive”.
`C[C@@H]1CN([C@@H](C)CO)C(=O)c2c(c3ccccc3n2C)-c2ccccc2CO[C@@H]1CN(C)Cc1cccc(C(=O)O)c1` was tested, and the cytotoxicity call was “inactive”.
For `C[C@@H]1CCCCO[C@H](CN(C)S(=O)(=O)c2ccc(F)cc2)[C@@H](C)CN([C@H](C)CO)C(=O)c2cc(NC(=O)Cc3ccccc3)ccc2O1`, the cytotoxicity call was “inactive”.
In the case of `COc1nn(C)cc1C(=O)NC1=NCCS1`, the cytotoxicity call is reported as “inactive”.
With `Cc1noc(C)c1S(=O)(=O)Nc1ccc2c(c1)CC(=O)N([C@@H](C)CO)C[C@H](C)[C@@H](CN(C)S(C)(=O)=O)O2` the cytotoxicity call was “inactive”.
In the case of `COc1ccc(S(=O)(=O)N(C)C[C@H]2Oc3c(NS(=O)(=O)c4c(C)noc4C)cccc3C(=O)N([C@@H](C)CO)C[C@@H]2C)cc1`, the cytotoxicity call is reported as “inactive”.
`C[C@@H]1CCCCO[C@H](CN(C)C(=O)Nc2cccc3ccccc23)[C@H](C)CN([C@H](C)CO)C(=O)c2cc(NS(=O)(=O)c3ccc(Cl)cc3)ccc2O1` was tested, and the cytotoxicity call was “inactive”.
`COCC(=O)N(C)C[C@H]1Oc2cc(-c3ccc(OC)cc3)ccc2S(=O)(=O)N([C@@H](C)CO)C[C@@H]1C` was tested, and the cytotoxicity call was “inactive”.
